Source: PubChem BioAssay AID1347417 (National Center for Advancing Translational Sciences (NCATS), 2020)
In all, about 120,000 compounds went through this assay and about 5,300 (4.4%) were called active. The shares of active, inactive and inconclusive entries below differ from those in the screen. Calls follow the shape of the dose curve; as a rule, active = well fitted inhibition curve with a large enough effect; inconclusive = small, poorly fitted or top-dose-only effect; inactive = no such curve, though single readings can be large or run the other way. Where the call is inconclusive, the potency comes from a doubtful curve fit.

experiment: qHTS Primary assay for Inhibitors of Plasmodium falciparum Dd2 growth in vitro; also: nearly all actives have a fitted effect of over 65% in size;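 as to activity, negative = inhibition: plate controls were DMSO vehicle for no effect and reference drug for full effect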; conditions: P. falciparum Dd2 growth, SYBR Green, 72 h; activity, negative = inhibition: at 28.9 µM (top of the series) unless noted; series mostly up to 28.9 µM
Procedure, shortened: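 Infected erythrocytes (Dd2, 0.3% parasitemia, 2.5% hematocrit final) are added to compound in RPMI-1640/Albumax II medium, grown 72 h at 37C in low oxygen, then lysed with saponin/Triton-X containing SYBR Green and read by fluorescence.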
Potency is read from the fitted curve at half-maximal effect; tags tell the direction and shape of the fitted curve.

SMILES | Potency | activity, negative = inhibition
COc1c[nH]c(CN2CCCC(Nc3ccc(C(C)C)cc3)C2)cc1=O (centres undefined) | inactive | –
Cc1cc(S(=O)(=O)N2C[C@@H](F)C[C@H]2C(=O)N2CCc3ccccc3C2)ccc1Cl | inactive | –
CCOc1ccc(NC(=O)Cn2c(=O)n(Cc3ccc(C(=O)NCc4ccc5c(c4)OCO5)cc3)c(=O)c3ccccc32)cc1 | inconclusive: 11.2 µM [inhibitor, single point] | –
O=C1COc2ccc(-c3cccc(O)c3)nc2CN1CCOc1ccccc1 | inactive | –
COCc1ccc2c(c1)c(OC(C)(C)C(=O)NCC1CC1)nn2Cc1ccccc1 | active: 4.47 µM | –
COC(=O)c1ccc(Cn2c(SCC(=O)Nc3ccc(F)cc3)nc3ccccc32)cc1 | inactive | –
C[S+](=O)([O-])N1CCC2(CC1)CC(c1ccccc1)=NO2 | inactive | –
COc1ccc(Cn2c(=O)c(-c3noc(C)n3)c3n(c2=O)CCCCC3)cc1 | inconclusive: 10 µM [inhibitor, partial curve, poor fit] | –
CN1C(=O)CCC2(CNC(=O)c3ccccc3)CCC=C12 (centres undefined) | inactive | –
CCCN(C)c1nccnc1OC1CCN(C(=O)c2ccc(F)cc2)C1 (centres undefined) | active: 10 µM | –
Fc1ccccc1CN1CCOC[C@H]1c1ncc(-c2cccc(Cl)c2)[nH]1 | inconclusive: 12.6 µM [inhibitor, partial curve, poor fit] | –
O=C(NCCCN1CCN(c2ccc(F)cc2)CC1)c1ccc2nc(CCc3ccccc3)oc2c1 | inconclusive: 12.6 µM [inhibitor, single point] | –
Cc1ccc2oc([C@H]3CCN(Cc4ccc(C(F)(F)F)cc4)C3)nc2c1 | inactive | –
COc1ccc(Nc2cnc3ccc(-c4cccc(CO)c4)nn23)cn1 | inconclusive: 2.82 µM [inhibitor, single point] | –
CCc1cccc(NC(=O)C(CC)n2nc(C)c3sc4ccccc4c3c2=O)c1 (centres undefined) | inconclusive: 15.8 µM [inhibitor, single point] | –
CC(C)CCN1C(=O)N(CCCc2ccncc2)C(=O)C12CCN(Cc1ccc(F)cc1)CC2 | inconclusive: 11.2 µM [inhibitor, partial curve] | –
CO[C@H]1C(=O)N(C2CCN(C(=O)Nc3ccccc3)CC2)[C@H]1c1ccncc1 | inactive | –
NC(=O)CNC(=O)[C@@]1(O)C[C@@H](O)[C@H](O)[C@@H](NS(=O)(=O)c2cccc(C(F)(F)F)c2)C1 | inactive | –
Cc1c(C(=O)NCc2ccccc2Br)oc2ccc3c(c12)C(=O)CC(C)(C)O3 | inconclusive: 8.91 µM [inhibitor, single point] | –
COc1ccc(NC(=O)c2sc3nc4c(cc3c2N)CN(Cc2ccccc2)CC4)cc1OC | inactive | –
COc1ccc(-c2nc(S(=O)(=O)c3ccc(C)cc3)c(NCc3ccccc3)o2)cc1 | inconclusive: 10 µM [inhibitor, single point] | –
O=C(c1ccccc1)N1CCCC2(C1)C(=NC1CCCCC1)NC(=O)N2c1cc(F)cc(F)c1 (centres undefined) | inactive | –
CCC1(CC)CC1C(=O)N1CCC2(CC1)Nc1ccccc1NC2=O (centres undefined) | inconclusive: 10 µM [inhibitor, partial curve, poor fit] | –

SMILES | Potency | activity, negative = inhibition
CC(=O)Nc1ccc(NC(=O)C2c3ccccc3C(=O)N(C3CCCC3)C23CCCC3)cc1 (centres undefined) | inconclusive: 3.98 µM [inhibitor, single point] | –
COc1ccc(-c2noc([C@@H]3CCCN3C(=O)COc3ccc(C)cc3)n2)cc1 | inactive | –
Cc1noc2ncnc(N3CCCC(C(=O)Nc4cccc(C(F)(F)F)c4)C3)c12 (centres undefined) | inconclusive: 11.2 µM [inhibitor, single point] | –
CCc1ccc(NC(=O)c2ccc(F)c(S(=O)(=O)N3CCN(c4cc(C)ccc4C)CC3)c2)cc1 | inconclusive: 10 µM [inhibitor, single point] | –
CC1C=CC(C)N1c1ncnc2c1CN(C1CCNC1)C(=O)CN2C (centres undefined) | – | inconclusive: -33.4% [inhibitor]
CC(=O)N1CCC(C2CCN(S(=O)(=O)c3ccc(Cl)cc3C)C2)CC1 (centres undefined) | inconclusive: 7.94 µM [inhibitor, single point] | –
COc1cccc(Cl)c1-c1nccc2c(=O)cc(-c3ccccn3)oc12 | inactive | –
COc1ccc(NC(=O)c2ccc3c(c2)CCN3S(=O)(=O)c2ccccc2)cc1 | inconclusive: 17.8 µM [inhibitor, single point] | –
CCOC(=O)CNC(=O)N1CCC(N2C(=O)C(OCC3CC3)C23CCCCC3)CC1 (centres undefined) | inconclusive: 20 µM [inhibitor, single point] | –
COc1ccc(OC)c(NC(=O)Cn2cc(C(=O)c3ccc(Cl)cc3)c(=O)c3cc(OC)ccc32)c1 | active: 8.91 µM | –
CC(C)c1noc(-c2cccn3c(CNC(=O)c4cc(F)ccc4Cl)nnc23)n1 | inconclusive: 0.562 µM [inhibitor, full curve, poor fit] | –
CN(C)c1cccc(-c2cnc(NC(=O)c3ccncc3)c3c2CCO3)c1 | inconclusive: 31.6 µM [inhibitor, single point] | –
CCN1C(=O)C2(CCN(S(=O)(=O)c3cc(C)ccc3C)CC2)c2ccccc21 | inconclusive: 8.91 µM [inhibitor, partial curve, poor fit] | –
Cc1ccc(C)c(S(=O)(=O)c2nnn3c2nc(N2CCCCC2)c2sccc23)c1 | inconclusive: 10 µM [inhibitor, single point] | –
COc1cc(OC)c(NC(=O)CSc2cc(=O)n(C)c3ccc(Cl)cc23)cc1Cl | inactive | –
CCc1ccc(NC(=O)CC2C(=O)N(c3ccc(Cl)cc3)C(=O)N2C2CCCC2)cc1 (centres undefined) | active: 10 µM | –
COc1cccc(CC2(CO)CCCNC2)c1 (centres undefined) | inactive | –
CCc1c(CN2CCN(c3cccc(C)c3)C(C)C2)csc1C (centres undefined) | inactive | –
CC(C)c1noc(-c2cn(C3CCN(C(=O)c4ccc[nH]4)CC3)nn2)n1 | inconclusive: 10 µM [inhibitor, single point] | –
O=C(Cn1ncc2c3ccccc3n(Cc3cccc(Cl)c3)c2c1=O)N1CCCCCC1 | active: 8.91 µM | –
O=C(NCc1ccco1)c1ccc2c(c1)N(Cc1cccc(Cl)c1)C(=O)c1ccccc1S2=O (centres undefined) | inconclusive: 11.2 µM [inhibitor, single point] | –
Cc1ccc(CN2CCCN(Cc3ccncc3)C(c3ccccc3)CC(=O)NCC2)s1 (centres undefined) | active: 1 µM | –
CCc1ccc(-c2nc(CSCC(=O)NCc3ccc(C)cc3)c(C)o2)cc1 | inconclusive: 11.2 µM [inhibitor, single point] | –

SMILES | Potency | activity, negative = inhibition
COc1ccc(CN2CCN(S(=O)(=O)c3ccc(NC(C)=O)cc3)CC2)c(OC)c1OC | inconclusive: 17.8 µM [inhibitor, single point] | –
O=c1n(-c2ccncc2)nc2n1CCN(Cc1ccc(OC(F)(F)F)cc1)C2 | inconclusive: 7.94 µM [inhibitor, partial curve, poor fit] | –
Cc1ccc(Cn2c(C3CCN(C(=O)Cc4cccs4)CC3)n[nH]c2=O)cc1 | inconclusive: 17.8 µM [inhibitor, single point] | –
O=C(NC1CCCCC1)c1ccc2c(c1)N(Cc1cccc(Cl)c1)C(=O)c1ccccc1S2=O (centres undefined) | inconclusive: 10 µM [inhibitor, single point] | –
CCN1CCN(CCNC(=O)c2cn3ccnc(-c4ccc(OC)cc4)c3n2)CC1 | inconclusive: 17.8 µM [inhibitor, single point] | –
Cc1cccc2sc(N(Cc3cccnc3)C(=O)COc3ccccc3)nc12 | inconclusive: 17.8 µM [inhibitor, single point] | –
Cc1ccc(CNC(=O)CC2=C3CCCCC3N(C(C)C)C2=O)o1 (centres undefined) | inactive | –
CCCNC(=O)C(NC(=O)c1ccccc1C)C1CCN(C(=O)c2ccc(OC)cc2)CC1 (centres undefined) | inconclusive: 0.0631 µM [inhibitor, full curve, poor fit] | –
COc1ccc(-c2nc3ccccc3s2)cc1NC(C)=O | inactive | –
O=C(c1cc(-c2ccc(F)cc2)nc2ccccc12)N1CCC(c2nc(C3CCOCC3)no2)C1 (centres undefined) | inconclusive: 20 µM [inhibitor, single point] | –
COc1cccc(CC(=O)N2CCCC(c3nc(C4CCOCC4)no3)C2)c1 (centres undefined) | inactive | –
Cc1cc(C)c2c(-n3cccc3)c(C(=O)NCC(C)c3ccccc3)sc2n1 (centres undefined) | inactive | –
O=C(c1ccc(Cl)cc1)N1CC2(CCN(Cc3ccccn3)C2)Cc2ccccc21 (centres undefined) | inconclusive: 8.91 µM [inhibitor, partial curve] | –
CC(=O)NC[C@H]1OC[C@@H](NC2CCCCC2)[C@@H]1O | inactive | –
CCc1cccc(NC(=O)[C@@H]2COCC(=O)N2Cc2ccc(OC)cc2OC)c1 | inconclusive: 15.8 µM [inhibitor, single point] | –
CC(C(=O)NCCc1ccccc1)N1C(=O)COc2ccc(C(=O)COc3ccc(Cl)cc3)cc21 (centres undefined) | inactive | –
O=C1CO[C@H]2CCN(Cc3nccs3)CC[C@@H]2N1Cc1ccccc1 | inactive | –
Cc1ccc(C)c(NC(=O)Cn2c(=O)n(CC(=O)NCCc3ccccc3)c(=O)c3ccccc32)c1 | inactive | –
Cc1cc(Cl)ccc1S(=O)(=O)N1CCC(n2cnnc2C)CC1 | inconclusive: 14.1 µM [inhibitor, single point] | –
CCN(C(=O)c1cc(S(=O)(=O)N2CCCC2)cn1C)c1ccc(OC)cc1 | inconclusive: 20 µM [inhibitor, single point] | –
COc1ccc(Cn2c(SCc3ccc(C(=O)NCc4cccs4)cc3)nc3ccncc32)cc1 | active: 7.94 µM | –
C=CCCC(CN1CCOCC1)Oc1ccc2cccc(OC)c2n1 (centres undefined) | inconclusive: 12.6 µM [inhibitor, single point] | –
COCCn1nnnc1C1CC2(CCOCC2)C(=O)N1Cc1ccc(F)cc1 (centres undefined) | inactive | –
